Test results published in PubChem BioAssay AID686978 (National Center for Advancing Translational Sciences (NCATS), 2013).
Out of some 420,000 compounds screened, about 64,000 (15%) were called active. The inconclusive results got no clear call from the source; some entries with a clear call stand among them for comparison. Calls come from the whole dose curve; as a rule, active = well fitted inhibition curve with a large enough effect; inconclusive = small, poorly fitted or top-dose-only effect; inactive = flat fitted curve, though single readings scatter. Potencies of inconclusive entries are left out as doubtful fits.
% is set by controls: 0 for no effect and ±100 for the full control effect; potency is the fitted concentration of half-maximal effect; tags give direction and shape of the fitted curve.

Assay: qHTS for Inhibitors of human tyrosyl-DNA phosphodiesterase 1 (TDP1): qHTS in cells in absence of CPT; note: nearly all actives have a fitted effect of over 55% in size
Conditions: DT40 Tdp1-/- hTDP1 cells, no CPT, ATP luminescence, 48 h; activity change, negative = growth inhibition: at 46.2 µM (top of the series)
Summary of the method: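 Seeded 400 DT40-hTDP1 cells/well (vehicle DMSO, no 20 nM CPT); pinned compounds; ≥48 hr at 37 °C; CellTiter-Glo luminescence as viability measure.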
With `CC(=O)OCn1nnc2ccccc2c1=O` the Potency was inconclusive [inhibitor, single point].
In the case of `COc1ccccc1N(C)S(=O)(=O)c1ccc(Cl)c(C(=O)N2CCC2)c1`, the Potency is reported as inconclusive [inhibitor, single point].
For `COC(=O)[C@@]12CCCCN1[C@H](c1ccc(-c3ccc(OC)cc3)c(OC)c1)[C@@H]1C(=O)N(C)C(=O)[C@@H]12`, the Potency was inconclusive [inhibitor, single point].
For `Cn1c(/C=N/c2nc3ccccc3[nH]2)nc2ccccc21`, the Potency was inconclusive [inhibitor, single point].
For `Nc1c(C(=O)Nc2cccc(F)c2)sc2nc(-c3cccs3)ccc12`, the Potency was “inactive”.
In the case of `Cc1nc2ccccn2c1C(=O)NN=C1CCCC1`, the Potency is reported as “inactive”.
For `O=C(CSc1nnc(-c2ccco2)o1)N1CCCCC1`, the Potency was “inactive”.
In the case of `Cc1cccc(C(=O)Nc2ccc(C(=O)/C=C/c3ccncc3)cc2)c1`, the Potency is reported as inconclusive [inhibitor, single point].
In the case of `O=C1C=C(c2ccc(-c3ccccc3)c(F)c2)C[C@@H](c2ccc3c(c2)OCO3)C1`, the Potency is reported as inconclusive [inhibitor, single point].
With `O=C(NC1CCCCC1)c1cc2cc(Br)ccc2o1` the Potency was inconclusive [inhibitor, partial curve].
For `COc1ccc(CNC(=O)CCC2N=C3c4ccccc4N=C(SCc4ccc(F)cc4)N3C2=O)cc1` (stereo not drawn), the Potency was active: 23.1 µM.
In the case of `CC(=O)Nc1ccc(-c2cc(-c3ccc(NC(C)=O)cc3)nc(-c3ccccc3)n2)cc1`, the Potency is reported as inconclusive [inhibitor, partial curve].
For `Cc1cc(F)ccc1-c1cc(C(=O)NCc2cc(C(F)(F)F)cc(C(F)(F)F)c2)[nH]n1`, the Potency was “inactive”.
For `CCN1CCOC(=O)C1CC(=O)Nc1ccc(C)c(Cl)c1` (stereo not drawn), the Potency was active: 5.8 µM.
For `COc1cccc(-c2ccc(NC(=O)C3CCCN(Cc4ccc(CO)o4)C3)cc2)c1` (stereo not drawn), the Potency was active: 16.4 µM.
With `O=C(C1CCCCC1)N(Cc1cccnc1)c1nc2c(F)cc(F)cc2s1` the Potency was active: 14.6 µM.
With `OCC1(Cc2ccc(Cl)cc2)CCN(Cc2ccc(F)c(F)c2)CC1` the Potency was inconclusive [inhibitor, single point].
For `O=C(Nc1cccc(Cl)c1)c1cccc(N2C(=O)C3CC=CCC3C2=O)c1` (stereo not drawn), the Potency was inconclusive [inhibitor, partial curve, poor fit].
With `Cc1cccc(C(=O)N2CCCC(CCC(=O)N3CCN(c4ccccn4)CC3)C2)c1C` (stereo not drawn) the Potency was inconclusive [inhibitor, partial curve].
For `Cc1ccc(S(=O)(=O)N2[C@@H](c3ccccc3)C(C(=O)O)=CC[C@H]2c2cccc(Cl)c2)cc1`, the Potency was “inactive”.
For `C/C(=N\Nc1ccc(S(N)(=O)=O)cc1[N+](=O)[O-])c1ccc2c(c1)OCO2`, the Potency was active: 14.6 µM.
With `Cc1ccccc1-c1nc2scc(CCNC(=O)C(=O)Nc3ccc(F)cc3F)n2n1` the Potency was inconclusive [inhibitor, single point].
In the case of `Cc1ccc(Cn2nc(C)c(NC(=O)CSc3n[nH]c(C)c3[N+](=O)[O-])c2C)cc1`, the Potency is reported as inconclusive [inhibitor, partial curve].
For `O=C(CN1CCN(C/C=C/c2ccccc2)CC1)Nc1ccccc1C(=O)NC1CC1`, the Potency was inconclusive [inhibitor, partial curve].
In the case of `O=C(NCc1ccco1)C(c1ccccc1)N(C(=O)Cc1cccs1)c1ccccc1F` (stereo not drawn), the Potency is reported as active: 25.9 µM.
In the case of `CN(C)C(=O)CCCCCCCCC(=O)N(C)C`, the Potency is reported as “inactive”.
In the case of `C[C@@H]1CCC2C(C)(C)C3CC21CC[C@@]3(C)O` (stereo partly drawn), the activity change, negative = growth inhibition is reported as inactive: -4.24% [at 9.04 µM].
With `O=c1c(Cl)c(NCc2ccco2)cnn1C12CC3CC(CC(C3)C1)C2` the Potency was inconclusive [inhibitor, single point].
In the case of `C=Cc1ccc(Cn2c(C(=O)O)c(CNCCc3ccccc3)c3ccc(C)cc32)cc1`, the Potency is reported as inconclusive [inhibitor, single point].
With `O=C1/C(=C\c2ccc(Cl)c(Cl)c2)CN(C(=O)CCN2CCOCC2)C/C1=C/c1ccc(Cl)c(Cl)c1` the Potency was active: 0.82 µM.
With `CC(C)CCNC(=O)C12CN(Cc3ccccc3)CC1C(c1cccc([N+](=O)[O-])c1)=NO2` (stereo not drawn) the Potency was inconclusive [inhibitor, single point].
For `O=C(CSc1nc2c([nH]c3ccccc32)c(=O)n1-c1ccccc1)c1ccc(Cl)cc1`, the Potency was inconclusive [inhibitor, full curve].
In the case of `COc1cccc(NC(=O)C(Sc2nc3ccccc3c(=O)n2CC(C)C)c2ccccc2)c1` (stereo not drawn), the Potency is reported as inconclusive [inhibitor, single point].
For `CC(C)NS(=O)(=O)c1ccc(OCC(=O)Nc2ccc3c(c2)OCO3)c(Cl)c1`, the Potency was inconclusive [inhibitor, single point].
With `CCCn1c(CCC(=O)Nc2cccc(C)c2C)nc2cccnc21` the Potency was inconclusive [inhibitor, single point].
For `CN(C)c1ccc(-c2ccc3ncnc(NCc4ccccc4)c3c2)cc1`, the Potency was inconclusive [inhibitor, single point].
With `CCOC(=O)c1nn(-c2ccc(F)cc2)c(-c2ccccc2)c1C(=O)c1ccccc1` the Potency was active: 16.4 µM.
With `COc1ccccc1NC(=S)N(CCc1nc2cc(C)c(C)cc2[nH]1)Cc1cccnc1` the Potency was inconclusive [inhibitor, single point].
With `CC(C)N(Cc1cn[nH]c1-c1ccc(-c2ccccc2)cc1)Cc1nccn1C` the Potency was inconclusive [inhibitor, single point].
With `CC(O)c1cccc(NC(=O)Nc2cccc(NC(=O)Nc3cccc(C(C)O)c3)c2)c1` (stereo not drawn) the Potency was “inactive”.
With `Cc1ccccc1OCCCCn1c(C2CC(=O)N(c3ccccc3Cl)C2)nc2ccccc21` (stereo not drawn) the Potency was “inactive”.
With `O=C(O)CCC(=O)N1N=C(c2ccc(Br)cc2)CC1c1cccc(Br)c1` (stereo not drawn) the Potency was “inactive”.
In the case of `CC(C(=O)NC1C=CS(=O)(=O)C1)N1C(=O)/C(=C/c2ccc(Cl)cc2)SC1=S` (stereo not drawn), the Potency is reported as inconclusive [inhibitor, single point].
